Laboratory results published in PubChem BioAssay (NCATS).
“And” between values parts separate entries of the source, which are not always exact repeats. Equal values may be shown once. The inconclusive results got no clear call from the source; some entries with a clear call stand among them for comparison. For some of these results: Potencies of inconclusive entries are left out as doubtful fits. The source made the active and inactive calls. The call rests on the fitted dose curve; in most records, active means well fitted curve in the direction sought with a large enough effect; inconclusive means small, poorly fitted or top-dose-only effect, or another doubt; inactive means no such curve, though single readings can be large; an effect the other way counts as inactive or inconclusive.

Experiment: Viability qHTS for spleen associated tyrosine kinase inhibitor (SYKi) drug resistant MV4-11 cells (AID 1963824); further: nearly all actives have a fitted effect of over 35% in size
Details: SYKi-resistant MV4-11 viability, CellTiter-Glo, 72 h; series mostly up to 45 µM
In short: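 SYK-inhibitor-resistant MV4-11 AML cells were seeded at 500 per well onto compound and cultured 72 hours (37 °C, 5% CO2). CellTiter-Glo was then added, and after 10 min at room temperature, luminescence gave viability.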
Potency means the concentration at half of the fitted maximal effect; tags describe the fitted curve by direction and shape.

Structure (SMILES)	Potency
Cc1ccc(C(=O)OCc2ccc([C@@H](CN)C(=O)Nc3ccc4cnccc4c3)cc2)c(C)c1	active: 2.29 µM
C[C@@H](O)[C@H]1C(=O)N2C(C(=O)O)=C([C@H]3CCCO3)S[C@H]12	inactive
CCOC(=O)n1ccn(C)c1=S	inactive

Experiment: Cellular viability qHTS for adrenocortical cancer (ACC) cell line SW-13 (AID 1963989); further: nearly all actives have a fitted effect of over 65% in size;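 on activity (max response): cells grown in serum-free medium with ITS supplement; on the % scale 0 is the no-effect control and ±100 the full control effect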
Details: SW-13 ACC cells viability, CellTiter-Glo, 48 h; activity (max response): hits give low values
In short: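 SW-13 cells in ITS-supplemented serum-free DMEM were plated overnight, then exposed for 48 h at 37C to compound titrations (up to 46 uM final). Viability was read by CellTiter-Glo luminescence; four-parameter logistic fits gave IC50 and efficacy.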

Structure (SMILES)	activity (max response)	Potency
N=C1CCCN1Cc1[nH]c(=O)[nH]c(=O)c1Cl	inactive: -17.6%	
Cn1c([N+](=O)[O-])cnc1COC(N)=O	inactive: -4.89%	
CCCCCCCCCCOc1cc2c(=O)c(C(=O)OCC)c[nH]c2cc1OCC	inactive: 0.0943%	
N#CN1CCC[C@@H](n2nc(-c3ccc(Oc4ccc(F)cc4F)cc3)c(C(N)=O)c2N)C1		inconclusive [cytotoxic, single point]
NCCCC(N)CC(=O)NCC1NC(=O)C(CO)NC(=O)C(N)CNC(=O)C(C2CCN=C(N)N2)NC(=O)C(=CNC(N)=O)NC1=O (stereo not drawn)	inactive: -2.59%	
CSc1ccc(/C=C2/C(C)=C(CC(=O)O)c3cc(F)ccc32)cc1		inconclusive [cytotoxic, single point]
O=C(Nc1ncc(SCCN2CCCC2)s1)[C@]1(c2ccc(S(=O)(=O)C3CC3)cc2)C[C@H]1C1CCCCC1		inconclusive [cytotoxic, single point]
CCN(CC)CCNc1ccc(C)c2sc3ccccc3c(=O)c12		active: 25.1 µM
Clc1ccc2nsnc2c1NC1=NCCN1	inactive: -2.56% and inactive: -8.39%	
CCOC(=O)c1ccc(N)cc1		inconclusive [cytotoxic, single point]
